In the RNAGym collection of RNA variant scans (doi:10.7554/elife.90254):
Read counts are not given, so values of variants with three or more changes are uncertain.

B1: LINE1-mini (parent)
chain: GGCAGAGCUCAACACAGCGUGGCAAAGUGGCUGUGGCUAGACUGCC

Variants of: B1
Test: self-cleavage, relative activity (ratio to wild type); higher = more cleavage; in vitro, sequencing; the parent is a self-cleaving ribozyme

| Variant | self-cleavage |
| --- | --- |
| GGCAGAGAUCAACACAGGGUGGCAAAGUGGCUGUGUAUAGACUGUC | 0.36 |
| GGCAGAGAUCAAUACCGCGUGGCAACGUGGCUGUGGGUAGACUGCC | 0.62 |
| GGCAGAGAUCAACAGAGCGUGGCAAAGUGGCCGUGGCUAGACUGCC | 0.14 |
| GGCAGAGAUCAACAAAGCGUGGCAAUGUGGCUGUGGCGAUACUGCC | 0.05 |
| GGCAGAGAUCAACAGAGCGUGGAAAAGUGGAUGUGGCUAGACUGCC | 0.04 |
| GGCAGAGAUCAACACAGGGUGGCAAAGUGGCUGUAGCUAGACUGCC | 0.22 |
| GGCAGAGAUCAAUACAGCGUGGCAAAGUGGCUGUGGCUAAACUGCC | 0.4 |
| GGCAGAGAUCAACAAAGCGUGGCAAAGCGUCUGUUGAUAGACUGCC | 0 |
| GGCAGAGAUCAACACAGUGUGGCAAAGUUGCUGUGGCUAGACUGCU | 0.1 |
| GGCAGAGAUCAACACAGGGUGGCAAAGGGGCUGUUGCUGGACUGCC | 0.06 |
| GGCAGAGAUCAACACAGUGUGGCAAAUUGGCUGGGGCUACACUGCC | 0.09 |
| GGCAGAGAUCAAUAGAGCGUGGCAAAGUGGCGGUGACUAGACUGCC | 0.08 |
| GGCAGAGAUCAACACAGGGUGGCAAAGUGGCUGUGGAUAGACUACC | 1 |
| GGCAGAGAUCAACAUAGCGUGCCAAAGUGGCUGUGCCUAGACUGCC | 0.34 |
| GGCAGAGAUCAACAAAGCGUGGCGAAGUGGCUGUGGCUAGACUGCC | 0.27 |
| GGCAGAGAUCAACACAGGGUGGCAAUGUGGCUUUGGCUAGACUGCC | 0.06 |
| GGCAGAGAUCAACAGAGCGUGGCAAAGUGGCUGUGGCUAGACUGAC | 0.18 |
| GGCAGAGAUCAAUACAGCGUGGCAAAGUAGCUGUGGCUAUACUGCC | 0.21 |
| GGCAGAGAUCAACAGAGCGUGGCAAAGUGGCUGUUGCUAGACUGCA | 0.13 |

| Variant | self-cleavage |
| --- | --- |
| GGCAGAGAUCAACACAGAGUGGCAAAGUGGCUGUGGCUAGACUUCC | 0.45 |
| GGCAGAGAUCAACAUAGCGUGGCAAAGUGGCUGUGGCGAGACUGCC | 0.14 |
| GGCAGAGAUCAACAGAGUGUGGCAAAGUGGCUGUGGCCAGACUGCC | 0.16 |
| GGCAGAGAUCAACAGAGUGUGGCAAAGUGGCUGUGGCUAGACUGCC | 0.19 |
| GGCAGAGAUCAAGACAGCGUGGCAAAGUGGCUGAGGUUAGAGUGCC | 0.49 |
| GGCAGAGAUCAACAAAGCGUGGCAAAGUGGUUAUGGCUAGACUGCC | 0.28 |
| GGCAGAGAUCAAUACAGCGUGGCAAAGUGGCUCUGGCUAGACUGCC | 0.09 |
| GGCAGAGAUCAAUACAGCGUGGCAAAGUGGCUAUGGCUAGACUGCC | 0.08 |
| GGCAGAGAUCAAUACAAGGUGGCAAAGUGGCUGUGGCUAGACUGCC | 0.29 |
| GGCAGAGAUCAAUCCAGCGCGGCAAAGUGGCUGUGGCUAGACUGCC | 0.19 |
| GGCAGAGAUCAACAAAGCGUGGCAAAGUGGCUGUUGCUAGACUGCC | 0.26 |
| GGCAGAGAUCAACACAGAGUCGCAAAGUGGCUGUGGCUAUGCUGCC | 0.09 |
| GGCAGAGAUCAACACAGAGUGGCAAAGUGGCUGUGGAUAGACUGCC | 0.01 |
| GGCAGAGAUCAACACAGUCUGGCAAAGUUGCUGUGACUAGACUGCC | 0.1 |
| GGCAGAGAUCAACACAGGGUGGCAAAGUAGCUGUGGCUAGACAGCC | 0.02 |
| GGCAGAGAUCAACACAGAGUUGCAAAGUGGCUGUGGCUAGACUGCC | 0.14 |
| GGCAGAGAUCAAGACAGCGUCGCAAAGUGGCUGUGGAUAGACUGCC | 0.02 |
| GGCAGAGAUCAACACAGAGUGGCAAAGUGGAUGUGGCUAGACUGCC | 0.24 |
| GGCAGAGAUCAACAUAGAGUGGCAGAUUGUCUGUGGAGAGACUGCC | 0.01 |

| Variant | self-cleavage |
| --- | --- |
| GGCAGAGAUCAACACAGAGUGGCAAAGUAGCUGUGGCUAGACUGCC | 0.14 |
| GGCAGAGAUCAACACAGUGUGGCAAAGUGGCUGUGGCUUGACUGCC | 0.05 |
| GGCAGAGAUCAACACAGUGUGGCAAAGUGGCUGUGGCUCGACUGCC | 0.29 |
| GGCAGAGAUCAACAUAGCGUGGCAAAGUGGCUCUGGCUAGACUGCC | 0.07 |
| GGCAGAGAUCAACAAAGCGUGGCAAAGUGGCUGUGGGUCGAUUGUC | 0.25 |
| GGCAGAGAUCAAGACAGCCUGGCAAAGUGUCUGUGGCUAGACAGCC | 0.12 |
| GGCAGAGAUCAACACAGGGUGGCAAAGUGGCUGUGGGUAGACUGCC | 0.57 |
| GGCAGAGAUCAACACAGAGUGCCAAAGUGGAUGUGGCUAGACUGCC | 0.44 |
| GGCAGAGAUCAACACAGUGUGGCAAAGUGGCUGUGGCUAGAUUGCC | 0.25 |
| GGCAGAGAUCAACACAGAGUGGGAAAGUGGCUGUGGCUAGACUACC | 0.29 |
| GGCAGAGAUCAAGACAGCGUGGCAAAGUGGCUGUGGCUAGACUGCA | 0.02 |
| GGCAGAGAUCAACAAAGCGUGGCAAAGUGGCUGUGGCUAGCCUGCC | 0.32 |
| GGCAGAGAUCAACAUAGCGUGGCAAAGUGCCUGUGGCUAGACUGAC | 0.03 |
| GGCAGAGAUCAAGACAGCGUGGCAAAGAGGCUGUGGCUAGACUGCC | 0.92 |
| GGCAGAGAUCAAUUCAGUGUGGCAAAGUGGCUGUGGCUAGACUGUC | 0.23 |
| GGCAGAGAUCAACAGAGCGUGGCAAAGUGGCUGUGGCUAAACUGCC | 0.33 |
| GGCAGAGAUCAACACAGAGUGGCAAAGUGGCUGUGGCUCGACUGCC | 0.24 |
| GGCAGAGAUCAAUACUGCGUGGCUAAGUGGGUGUGGCUAGAAUGCC | 0.23 |
